PubChem BioAssay AID1347071 (National Center for Advancing Translational Sciences (NCATS), 2019)
Out of some 410,000 compounds screened, about 260 (0.063%) were called active. The shares of active, inactive and inconclusive entries below differ from those in the screen. The call rests on the fitted dose curve; in most records, active means well fitted activation curve with a large enough effect; inconclusive means small, poorly fitted or top-dose-only effect; inactive means no such curve, though single readings can be large or run the other way. Potencies of inconclusive entries are left out as doubtful fits.

Test: qHTS for compounds that reverse cellular toxicity of Amyloid beta (A-beta) peptide in yeast: Primary Screen; further: nearly all actives have a fitted effect of over 55% in size
Conditions: yeast expressing A-beta42, growth rescue, OD600, 48 h; growth rescue: at 46.1 µM (top of the series), 0% DMSO, 100% iron-clioquinol control
Outline: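 Growth rescue measured by 600 nm absorbance after 48 h yeast culture at 30 C with compound. Values normalized between DMSO and an equimolar ferric chloride plus clioquinol control.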
Potency means the concentration at half of the fitted maximal effect; tags describe the fitted curve by direction and shape.

Q: With `CC(C)c1ccc(NC(=O)c2snc3ccc(Cl)cc23)cc1` as the molecule, how does the Potency read?
A: inconclusive [activator, partial curve, poor fit]

Q: Which Potency does the source give for `CCOC(=O)N1CCc2[nH]c3ccc(C)cc3c2C1` here?
A: inconclusive [activator, single point]

Q: For `COCCCNC(=S)N/N=C/c1ccccc1O`, which Potency is on record?
A: inconclusive [activator, single point]

Q: For `CC(C)COc1ccc(N)cc1OCC(C)C`, which Potency is on record?
A: inactive

Q: For `CC(=O)N(C)c1ccc(NC(=O)COc2ccc(Br)cc2C)cc1`, which Potency is on record?
A: inconclusive [activator, full curve, poor fit]

Q: With `Cc1cccc(NC(=S)N(Cc2ccco2)C(C)c2cccs2)c1` (stereo unspecified) as the molecule, how does the Potency read?
A: inconclusive [activator, partial curve, poor fit]

Q: Which Potency does the source give for `CC(NC(=O)CCCC1=NS(=O)(=O)c2ccccc2N1)c1ccccc1` (stereo unspecified) here?
A: inactive

Q: Which Potency does the source give for `CCN(CC(=O)Nc1ccccc1C(F)(F)F)C(=O)CCOc1ccc(C)cc1` here?
A: inconclusive [activator, partial curve, poor fit]

Q: For `O=C(/C=C/c1ccccc1)Nc1cc(S(=O)(=O)N2CCOCC2)ccc1N1CCOCC1`, which growth rescue is on record?
A: inconclusive: -30.2% [activator]

Q: For `O=C(COC(=O)C12CC3CC(CC(C3)C1)C2)Nc1ccc(OC(F)F)cc1`, which Potency is on record?
A: inconclusive [activator, partial curve]

Q: For `COC(=O)COc1cc(OCC(=O)OC)c2c(C)c(Cl)c(=O)oc2c1`, which Potency is on record?
A: inactive

Q: Which Potency does the source give for `O=C(COC(=O)C1CC2C=CC1C2)Nc1ccc([N+](=O)[O-])cc1` (stereo unspecified) here?
A: inconclusive [activator, full curve]

Q: With `CC(C)CN(C(=O)CSc1nnc(-c2cccs2)n1C1CC1)C1CCS(=O)(=O)C1` (stereo unspecified) as the molecule, how does the Potency read?
A: inactive

Q: Which Potency does the source give for `COc1cccc(OCC(=O)NNC(=S)Nc2ccc(Cl)cc2Cl)c1` here?
A: inconclusive [activator, partial curve, poor fit]

Q: With `O=C(NCc1ccccc1Cl)C1CCN(S(=O)(=O)c2ccc3c(c2)CCCN3C(=O)C2CCC2)CC1` as the molecule, how does the Potency read?
A: inactive

Q: Which Potency does the source give for `C(=N\Nc1nncc2ccccc12)/c1ccccc1` here?
A: inactive

Q: For `S=C(NCc1ccccn1)Nc1ccc(Cl)cc1Cl`, which Potency is on record?
A: inactive

Q: With `O=C(NCCCn1ccnc1)Nc1cccc2ccccc12` as the molecule, how does the Potency read?
A: inconclusive [activator, full curve]

Q: For `O=C(c1ccccc1Cl)N(Cc1ccc(Br)cc1)N1C(=O)CCC1=O`, which Potency is on record?
A: inconclusive [activator, partial curve, poor fit]

Q: Which Potency does the source give for `Cc1cccc(C)c1NC(=O)C(=O)c1cn(C)c2ccccc12` here?
A: inactive

Q: Which Potency does the source give for `CCN(CC(=O)NC(C)(C)C)C(=O)COc1c(Cl)cc(Cl)c2ccc(C)nc12` here?
A: inconclusive [activator, single point]
